From the supplement of paper PMC9151546
Single values are uncertain, as repeats are few or missing.

Assays:
[1] = test system: CHO-K1; test: hypodiploid nuclei frequency (% of nucleated events); higher = more hypodiploid events (aneugenic)
Method: (§1)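 Flow-cytometric in vitro micronucleus assay (Litron MicroFlow) in CHO-K1 cells in 96-well plates, 19 concentrations (4.5-200 µM, n=1 per concentration). Without S9, cells were exposed for 24 h and sampled at 48 h. With Aroclor 1254-induced rat liver S9, cells were exposed for 3-4 h and sampled at 27-28 h. Read-outs are %MN and %hypodiploid nuclei relative to nucleated events, and relative survival as the nuclei-to-bead ratio versus the 1% DMSO vehicle control (x100).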

[2] = test system: CHO-K1; test: micronucleus frequency (% of nucleated events); higher = more micronuclei (genotoxic)
[3] = test system: CHO-K1; test: relative survival (nuclei to bead ratio vs DMSO control) (% of vehicle control); higher = more surviving cells
Method: as §1
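Wherever hypodiploid nuclei frequency (% of nucleated events) is given: hypodiploid nuclei gated on a flow cytometer with 488 nm excitation after SYTOX Green staining, cultures at 37 °C, positive controls vinblastine without S9 and cyclophosphamide with S9.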
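Wherever micronucleus frequency (% of nucleated events) is given: cells lysed with nuclei stained by SYTOX Green, then micronucleus-gated events counted against nucleated events by flow cytometry with 488 nm excitation.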
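Wherever relative survival (nuclei to bead ratio vs DMSO control) is given: Lysed-cell nuclei stained with SYTOX Green and counted against counting beads by flow cytometry at 488 nm excitation, with vinblastine (no S9) and cyclophosphamide (plus S9) as positive controls.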

Cc1ccccc1N [2-Methylaniline]
Conditions	hypodiploid nuclei frequency, [1] [%]	micronucleus frequency, [2] [%]	relative survival, [3]
concentration: 4.53 (µM), S9 metabolic activation: with S9, exposure time: 3-4 hours	0.2	1.16	139
concentration: 4.53 (µM), S9 metabolic activation: without S9, exposure time: 24 hours	0.76	1.26	124
concentration: 5.66 (µM), S9 metabolic activation: with S9, exposure time: 3-4 hours	0.26	1.66	125
concentration: 5.66 (µM), S9 metabolic activation: without S9, exposure time: 24 hours	0.44	1.14	104
concentration: 7.07 (µM), S9 metabolic activation: with S9, exposure time: 3-4 hours	0.24	1.54	138
concentration: 7.07 (µM), S9 metabolic activation: without S9, exposure time: 24 hours	0.78	1.24	105
concentration: 8.84 (µM), S9 metabolic activation: with S9, exposure time: 3-4 hours	0.12	1.44	114
concentration: 8.84 (µM), S9 metabolic activation: without S9, exposure time: 24 hours	0.52	1.28	120
concentration: 11.1 (µM), S9 metabolic activation: with S9, exposure time: 3-4 hours	0.34	1.16	130
concentration: 11.1 (µM), S9 metabolic activation: without S9, exposure time: 24 hours	0.64	0.98	99.1
concentration: 13.8 (µM), S9 metabolic activation: with S9, exposure time: 3-4 hours	0.24	1.46	136
concentration: 13.8 (µM), S9 metabolic activation: without S9, exposure time: 24 hours	0.44	1.36	125
concentration: 17.3 (µM), S9 metabolic activation: with S9, exposure time: 3-4 hours	0.3	1.34	136
concentration: 17.3 (µM), S9 metabolic activation: without S9, exposure time: 24 hours	0.44	1.36	92.8
concentration: 21.6 (µM), S9 metabolic activation: with S9, exposure time: 3-4 hours	0.3	1.2	127
concentration: 21.6 (µM), S9 metabolic activation: without S9, exposure time: 24 hours	0.48	1.32	87.8
concentration: 27 (µM), S9 metabolic activation: with S9, exposure time: 3-4 hours	0.34	0.76	150
concentration: 27 (µM), S9 metabolic activation: without S9, exposure time: 24 hours	0.58	1.56	125
concentration: 33.7 (µM), S9 metabolic activation: with S9, exposure time: 3-4 hours	0.2	0.92	163
concentration: 33.7 (µM), S9 metabolic activation: without S9, exposure time: 24 hours	0.74	2.96	120
concentration: 42.2 (µM), S9 metabolic activation: with S9, exposure time: 3-4 hours	0.22	0.82	169
concentration: 42.2 (µM), S9 metabolic activation: without S9, exposure time: 24 hours	0.9	4.92	128
concentration: 52.7 (µM), S9 metabolic activation: with S9, exposure time: 3-4 hours	0.24	1.12	130
concentration: 52.7 (µM), S9 metabolic activation: without S9, exposure time: 24 hours	0.82	2.28	112
concentration: 65.9 (µM), S9 metabolic activation: with S9, exposure time: 3-4 hours	0.22	1.34	143
concentration: 65.9 (µM), S9 metabolic activation: without S9, exposure time: 24 hours	1.08	1.4	137
concentration: 82.3 (µM), S9 metabolic activation: with S9, exposure time: 3-4 hours	0.46	0.94	109
concentration: 82.3 (µM), S9 metabolic activation: without S9, exposure time: 24 hours	1.16	3.62	117
concentration: 103 (µM), S9 metabolic activation: with S9, exposure time: 3-4 hours	0.26	0.92	114
concentration: 103 (µM), S9 metabolic activation: without S9, exposure time: 24 hours	0.96	1.28	107
concentration: 129 (µM), S9 metabolic activation: with S9, exposure time: 3-4 hours	0.26	1.52	116
concentration: 129 (µM), S9 metabolic activation: without S9, exposure time: 24 hours	1.22	1.74	101
concentration: 161 (µM), S9 metabolic activation: with S9, exposure time: 3-4 hours	0.2	1.14	127
concentration: 161 (µM), S9 metabolic activation: without S9, exposure time: 24 hours	1.26	2.52	97.1
concentration: 201 (µM), S9 metabolic activation: with S9, exposure time: 3-4 hours	0.22	1.02	109
concentration: 201 (µM), S9 metabolic activation: without S9, exposure time: 24 hours	1.36	2.32	82.2

Nc1ccc2ccccc2c1 [2-Naphthylamine]
Conditions	hypodiploid nuclei frequency, [1] [%]	micronucleus frequency, [2] [%]	relative survival, [3]
concentration: 4.5 (µM), S9 metabolic activation: with S9, exposure time: 3-4 hours	0.16	1.22	95.2
concentration: 4.5 (µM), S9 metabolic activation: without S9, exposure time: 24 hours	0.81	1.77	100
concentration: 5.63 (µM), S9 metabolic activation: with S9, exposure time: 3-4 hours	0.16	1.98	105
concentration: 5.63 (µM), S9 metabolic activation: without S9, exposure time: 24 hours	0.46	1.04	115
concentration: 7.04 (µM), S9 metabolic activation: with S9, exposure time: 3-4 hours	0.26	1.06	105
concentration: 7.04 (µM), S9 metabolic activation: without S9, exposure time: 24 hours	0.72	1.28	125
concentration: 8.8 (µM), S9 metabolic activation: with S9, exposure time: 3-4 hours	0.14	1.06	91.4
concentration: 8.8 (µM), S9 metabolic activation: without S9, exposure time: 24 hours	0.57	1.27	132
concentration: 11 (µM), S9 metabolic activation: with S9, exposure time: 3-4 hours	0.16	1.66	98.4
concentration: 11 (µM), S9 metabolic activation: without S9, exposure time: 24 hours	0.46	1.56	116
concentration: 13.7 (µM), S9 metabolic activation: with S9, exposure time: 3-4 hours	0.24	1.36	99.7
concentration: 13.7 (µM), S9 metabolic activation: without S9, exposure time: 24 hours	0.59	1.35	126
concentration: 17.2 (µM), S9 metabolic activation: with S9, exposure time: 3-4 hours	0.2	1.26	97.1
concentration: 17.2 (µM), S9 metabolic activation: without S9, exposure time: 24 hours	0.64	1.32	105
concentration: 21.5 (µM), S9 metabolic activation: with S9, exposure time: 3-4 hours	0.28	1.5	95.8
concentration: 21.5 (µM), S9 metabolic activation: without S9, exposure time: 24 hours	0.53	1.11	89.6
concentration: 26.8 (µM), S9 metabolic activation: with S9, exposure time: 3-4 hours	0.28	1.68	74.8
concentration: 26.8 (µM), S9 metabolic activation: without S9, exposure time: 24 hours	0.64	1.3	114
concentration: 33.6 (µM), S9 metabolic activation: with S9, exposure time: 3-4 hours	0.26	2.3	73.7
concentration: 33.6 (µM), S9 metabolic activation: without S9, exposure time: 24 hours	0.76	1.56	118
concentration: 41.9 (µM), S9 metabolic activation: with S9, exposure time: 3-4 hours	0.36	1.94	63.8
concentration: 41.9 (µM), S9 metabolic activation: without S9, exposure time: 24 hours	0.86	1.58	122
concentration: 52.4 (µM), S9 metabolic activation: with S9, exposure time: 3-4 hours	0.38	2.52	67.3
concentration: 52.4 (µM), S9 metabolic activation: without S9, exposure time: 24 hours	1.06	1.52	110
concentration: 65.5 (µM), S9 metabolic activation: with S9, exposure time: 3-4 hours	0.38	1.46	77.7
concentration: 65.5 (µM), S9 metabolic activation: without S9, exposure time: 24 hours	1.6	3.38	43.8
concentration: 81.9 (µM), S9 metabolic activation: with S9, exposure time: 3-4 hours	0.2	1.66	73.8
concentration: 81.9 (µM), S9 metabolic activation: without S9, exposure time: 24 hours	1.58	2.54	56
concentration: 102 (µM), S9 metabolic activation: with S9, exposure time: 3-4 hours	0.22	1.62	77.1
concentration: 102 (µM), S9 metabolic activation: without S9, exposure time: 24 hours	1.36	2.26	70.6
concentration: 128 (µM), S9 metabolic activation: with S9, exposure time: 3-4 hours	0.2	1.38	83.7
concentration: 128 (µM), S9 metabolic activation: without S9, exposure time: 24 hours	1.86	2.58	82.4
concentration: 160 (µM), S9 metabolic activation: with S9, exposure time: 3-4 hours	0.42	1.94	80.3
concentration: 160 (µM), S9 metabolic activation: without S9, exposure time: 24 hours	–	–	28.7
concentration: 200 (µM), S9 metabolic activation: with S9, exposure time: 3-4 hours	0.34	1.18	77.5
concentration: 200 (µM), S9 metabolic activation: without S9, exposure time: 24 hours	–	–	37.5

Cc1cc(Cc2ccc(N)c(C)c2)ccc1N [4,4'-Methylenebis(2-methylaniline)]
Conditions	hypodiploid nuclei frequency, [1] [%]	micronucleus frequency, [2] [%]	relative survival, [3]
concentration: 4.5 (µM), S9 metabolic activation: with S9, exposure time: 3-4 hours	1.4	1.4	94.1
concentration: 4.5 (µM), S9 metabolic activation: without S9, exposure time: 24 hours	0.92	1.4	85.6
concentration: 5.63 (µM), S9 metabolic activation: with S9, exposure time: 3-4 hours	3.28	1.68	73.6
concentration: 5.63 (µM), S9 metabolic activation: without S9, exposure time: 24 hours	1	1.7	101
concentration: 7.04 (µM), S9 metabolic activation: with S9, exposure time: 3-4 hours	2.54	1.28	87.3
concentration: 7.04 (µM), S9 metabolic activation: without S9, exposure time: 24 hours	1.2	1.68	78.6
concentration: 8.8 (µM), S9 metabolic activation: with S9, exposure time: 3-4 hours	3.02	1.56	79.4
concentration: 8.8 (µM), S9 metabolic activation: without S9, exposure time: 24 hours	1.54	1.56	99
concentration: 11 (µM), S9 metabolic activation: with S9, exposure time: 3-4 hours	4.98	1.54	82.3
concentration: 11 (µM), S9 metabolic activation: without S9, exposure time: 24 hours	1.48	1.48	108
concentration: 13.7 (µM), S9 metabolic activation: with S9, exposure time: 3-4 hours	4.88	1.68	85.2
concentration: 13.7 (µM), S9 metabolic activation: without S9, exposure time: 24 hours	1.46	1.96	99.9
concentration: 17.2 (µM), S9 metabolic activation: with S9, exposure time: 3-4 hours	4.72	1.7	104
concentration: 17.2 (µM), S9 metabolic activation: without S9, exposure time: 24 hours	1.3	1.58	118
concentration: 21.5 (µM), S9 metabolic activation: with S9, exposure time: 3-4 hours	4.84	1.7	105
concentration: 21.5 (µM), S9 metabolic activation: without S9, exposure time: 24 hours	1.48	1.38	91
concentration: 26.8 (µM), S9 metabolic activation: with S9, exposure time: 3-4 hours	0.42	1.92	105
concentration: 26.8 (µM), S9 metabolic activation: without S9, exposure time: 24 hours	1.38	1.78	96.6
concentration: 33.6 (µM), S9 metabolic activation: with S9, exposure time: 3-4 hours	0.44	1.5	105
concentration: 33.6 (µM), S9 metabolic activation: without S9, exposure time: 24 hours	1.9	2.32	112
concentration: 41.9 (µM), S9 metabolic activation: with S9, exposure time: 3-4 hours	0.48	1.62	101
concentration: 41.9 (µM), S9 metabolic activation: without S9, exposure time: 24 hours	2.36	2.54	87.1
concentration: 52.4 (µM), S9 metabolic activation: with S9, exposure time: 3-4 hours	0.76	1.32	83.6
concentration: 52.4 (µM), S9 metabolic activation: without S9, exposure time: 24 hours	2.96	2.7	78.6
concentration: 65.5 (µM), S9 metabolic activation: with S9, exposure time: 3-4 hours	0.52	1.3	108
concentration: 65.5 (µM), S9 metabolic activation: without S9, exposure time: 24 hours	3.28	3.1	86.3
concentration: 81.9 (µM), S9 metabolic activation: with S9, exposure time: 3-4 hours	0.54	1.74	101
concentration: 81.9 (µM), S9 metabolic activation: without S9, exposure time: 24 hours	5.28	3.74	73.5
concentration: 102 (µM), S9 metabolic activation: with S9, exposure time: 3-4 hours	0.64	1.4	85.9
concentration: 102 (µM), S9 metabolic activation: without S9, exposure time: 24 hours	6.22	4.2	66.5
concentration: 128 (µM), S9 metabolic activation: with S9, exposure time: 3-4 hours	1.12	1.5	100
concentration: 128 (µM), S9 metabolic activation: without S9, exposure time: 24 hours	8.78	6.4	58.5
concentration: 160 (µM), S9 metabolic activation: with S9, exposure time: 3-4 hours	0.74	1.34	102
concentration: 160 (µM), S9 metabolic activation: without S9, exposure time: 24 hours	14.3	10.7	52.1
concentration: 200 (µM), S9 metabolic activation: with S9, exposure time: 3-4 hours	0.74	1.46	95.5
concentration: 200 (µM), S9 metabolic activation: without S9, exposure time: 24 hours	24	17.3	40
